Data on 54 compounds can be found in ChEMBL document CHEMBL5308541, “MAIP: An Open-Source Tool to Enrich High-Throughput Screening Output and Identify Novel, Druglike Molecules with Antimalarial Activity” (ACS Med Chem Lett, 2023).

A word on the % Inhibition: it is the drop in the measured response relative to a control, in per cent.

Hit rate of the full screen: of about 150,000 compounds, about 540 (0.36%) showed an effect of 50% or more. The list shows a part of the results.

The subject of this assay is Plasmodium falciparum. Briefly: Primary screen in NF54 nanoGlo assay, in single point, at 2uM, 72h; a lower Z score goes with more inhibition. Particulars: timepoint 72 hour. The class given is functional, Erythrocyte.
As for `OCC1CCN(c2ccc(CNc3ncnc4sccc34)cc2)CC1`, the “% Inhibition” value is reported as -5% and the Z score was found to be 0.93.

Regarding `C[C@H]1COc2ccc(-c3cncnc3)cc2CN1C(=O)CN1CCCCCC1`, the “% Inhibition” value is -7% and the Z score is reported as 1.29.

As for `COCCNC(=O)[C@@H]1Cc2ccc(cc2)Oc2ccc(O)c(c2)C(=O)N[C@@H]([C@@H](C)O)C(=O)N[C@@H](C)C(=O)N1`, the “% Inhibition” value is -6% and the Z score is recorded as 1.1.

As for `COc1ccc(-c2n[nH]cc2CNc2nccc(-c3ccccn3)n2)cc1`, the “% Inhibition” value was 2% and the Z score is -0.32.

Turning to `Cc1nn(C)c(C)c1NC(=O)C(C)NCC(c1ccccc1)c1c(-c2ccccc2)[nH]c2ccccc12` (stereo not drawn), the “% Inhibition” value is on record as 9% and the Z score is on record as -1.34.

As for `c1ccc(Cn2c3c(c4ccccc42)CCN2CCCC32c2ccccc2)cc1` (stereo not drawn), the “% Inhibition” value is recorded as -7% and the Z score was found to be 1.21.

Regarding `c1cc(CNc2ncnc3ccccc23)cc(-c2nc(-c3ccncc3)no2)c1`, the “% Inhibition” value was -6% and the Z score was 1.

Turning to `COc1cc(C)nc(N2CCC(c3ccc(C)nc3)CC2)n1`, the “% Inhibition” value was found to be 11% and the Z score is recorded as -2.34.

Take `O=C(O)c1nc(-c2ccnc(NCCN3CCOCC3)c2)n2c1ccc1ccccc12`: the “% Inhibition” value is reported as -1% and the Z score worked out at 0.22.

As to `CC(C)N1CCC(N2CCN(C(=O)N[C@H](c3ccccc3F)c3nccn3C)CC2)CC1`, the “% Inhibition” value is 2% and the Z score was -0.26.

Consider `O=C(c1ccc(Cn2ccnc2)cc1)N1CC[C@H](Oc2cnc3ccccc3n2)C1`, for which the “% Inhibition” value was 1% and the Z score is reported as -0.19.

`Cc1nc2ccc(C(=O)NCCNc3cccnc3)cc2s1`: the “% Inhibition” value was -10% and the Z score turned out to be 1.93.

As to `CC(O)CN1CCN(C(=O)C(=O)N2CCC(C)CC2)C(C)C1` (stereo not drawn), the “% Inhibition” value is reported as -1% and the Z score was determined as 0.25.

For the compound `Cn1cc(-c2cccc(CN[C@@H](Cc3cccnc3)c3cccc(Cl)c3)c2)cn1`, the “% Inhibition” value came out at 6% and the Z score is recorded as -1.22.

As for `C[C@H](NC1CCN(CC(F)F)CC1)c1ccc(-c2cncnc2)cc1`, the “% Inhibition” value turned out to be 8% and the Z score was -1.48.

Regarding `CN1CCC(N2CCN(Cc3c[nH]nc3-c3ccc(F)cc3F)CC2)CC1`, the “% Inhibition” value is recorded as -8% and the Z score worked out at 1.43.

In the case of `CCc1nc(CN2CCC(c3nccc(-c4cnn(C)c4)n3)CC2)n[nH]1`, the “% Inhibition” value is given as 3% and the Z score is listed as -0.39.

For the compound `CN1CCC(NCc2cn(-c3ccc4nc[nH]c4c3)nn2)CC1`, the “% Inhibition” value was -5% and the Z score is recorded as 0.82.

For the compound `CN1CCN(CCOc2ccccc2CN(C)Cc2cc(-c3cccnc3)no2)CC1`, the “% Inhibition” value was -10% and the Z score amounted to 1.92.

For the compound `CCc1cc2c(NCC3CCN(Cc4cccc(C)c4)CC3)ncnc2s1`, the “% Inhibition” value is on record as -7% and the Z score amounted to 1.27.

In the case of `Cc1ccccc1-c1cccc(C(=O)NCCN2CCC(O)CC2)c1`, the “% Inhibition” value is -4% and the Z score is reported as 0.78.

As to `CC1(C)CC(NCCCc2ccccc2F)CC(C)(C)N1`, the “% Inhibition” value is listed as 8% and the Z score is recorded as -1.25.

On to `CC[C@H](NC(=O)c1cc(C)nc2c(C)cccc12)c1nc(C)no1`, for which the “% Inhibition” value was -5% and the Z score is listed as 0.69.

As for `CN(C)c1ncncc1N1CCC(C(=O)N2CCC(N3CCCCC3)CC2)CC1`, the “% Inhibition” value came out at 20% and the Z score was -3.4.

For `CCc1cc(N2CCC(N3CCC[C@H]3C(N)=O)CC2)nc(-c2ccncc2)n1`, the “% Inhibition” value is given as 10% and the Z score is on record as -1.83.

For the compound `CN(C)Cc1cc(O[C@H]2CCN(Cc3cccc4cnccc34)C2)ccn1`, the “% Inhibition” value is listed as 2% and the Z score was -0.33.

In the case of `Cc1cc2c(N3C[C@H](C(N)=O)[C@@H](c4cnn(C)c4)C3)nccn2n1`, the “% Inhibition” value was determined as 14% and the Z score is on record as -3.01.

Take `CCOCCN(C)Cc1cnc2ccsc2c1`: the “% Inhibition” value is listed as 7% and the Z score is reported as -1.54.

With `COc1ccc2oc(C=Cc3ccnnc3)cc2c1`, the “% Inhibition” value was determined as 0% and the Z score is -0.05.

Regarding `C[C@@H](CN(C)CCO)NCC1(N2CCCCC2)CCCCC1`, the “% Inhibition” value is on record as 0% and the Z score is given as -0.09.

Turning to `C[C@H]1c2cccn2CCN1CC1CCC2(CC1)OCCO2`, the “% Inhibition” value was -1% and the Z score came to 0.23.

`CC(C)(C)OC(=O)N1C2CCC1CN(C(=O)c1cnn3c(-c4ccccc4)ccnc13)CC2` (stereo not drawn): the “% Inhibition” value is given as -2% and the Z score worked out at 0.34.

With `CC(C)(C)c1cccc(OCCCN2CCC(c3nc4cc(Cl)ccc4o3)CC2)c1`, the “% Inhibition” value is -8% and the Z score amounted to 1.22.

For `C[C@H]1CN(c2cccc(F)c2)CCN1c1nccc(-c2cnccn2)n1`, the “% Inhibition” value is given as -9% and the Z score is recorded as 1.81.

On to `CNc1cc(N2CCC[C@H](c3cc(N4CCCC4)nc(C)n3)C2)nc(N)n1`, for which the “% Inhibition” value is listed as -1% and the Z score is given as 0.14.

In the case of `Cn1ncc2c(N)nc(NC3CCCC(CO)C3)nc21` (stereo not drawn), the “% Inhibition” value is -10% and the Z score stood at 1.67.

For `CCOc1cc(CNC[C@H]2CCCN(CCOC)C2)ccc1OCCn1ccnc1`, the “% Inhibition” value was 15% and the Z score is given as -3.15.

For the compound `c1cc(-c2ccccc2CN2CCNCC2)cc(-n2cccn2)c1`, the “% Inhibition” value was found to be 1% and the Z score is -0.25.

`Cn1ccnc1[C@@H]1OCC[C@H]1CNc1nccc(-c2cnccn2)n1`: the “% Inhibition” value amounted to 6% and the Z score is given as -1.11.

In the case of `O=C(CC1COC(=O)C1)N[C@@H](c1ccccc1)[C@H](O)c1ccccc1` (stereo partly drawn), the “% Inhibition” value is 1% and the Z score is reported as -0.18.

For the compound `C1CCCC(NCC2CCN(C3CCCC3)CC2)CC1`, the “% Inhibition” value turned out to be 1% and the Z score is given as -0.16.

Take `C[C@H]1CCCCN1Cc1cncc(-c2cccc(C(F)(F)F)c2)c1`: the “% Inhibition” value was 12% and the Z score was -2.15.

As for `COc1ccc(-c2cc(NC3CC3)nc(N)n2)c2cccnc12`, the “% Inhibition” value came out at 0% and the Z score is given as 0.

For the compound `COc1cccc(CNc2ccc3nc(C4CC4)sc3c2)c1`, the “% Inhibition” value is -3% and the Z score was 0.47.

With `COc1ccc2c(c1)C[C@H](c1nnc(-c3ccccc3F)o1)CO2`, the “% Inhibition” value was 5% and the Z score was -1.05.

For `COCc1nc(CNC(=O)CCNC(=O)c2ccc(F)cc2)no1`, the “% Inhibition” value is reported as -10% and the Z score was found to be 1.58.

For the compound `Cn1cc(CNC[C@H](O)c2ccc(F)c(F)c2)c(-c2cc3ccccc3o2)n1`, the “% Inhibition” value was determined as 19% and the Z score is reported as -3.4.

`COc1ccc(-c2nnc(NCc3ccc4cn[nH]c4c3)o2)cc1`: the “% Inhibition” value is listed as -5% and the Z score turned out to be 0.95.

On to `Cn1nnc(C(=O)N2CCCCC23CCCCCC3)n1`, for which the “% Inhibition” value was 64% and the Z score is on record as -13.81.

Take `O=C(c1ccc2cc[nH]c2c1)N1CC(CO)C(CN2CCC(CO)CC2)C1` (stereo not drawn): the “% Inhibition” value was 12% and the Z score is given as -2.65.

Turning to `CN(C)c1nccnc1N1CCC(N2CCC(O)CC2)CC1`, the “% Inhibition” value is -5% and the Z score was 0.96.

For the compound `c1cc(-c2ccc3cc[nH]c3c2)c2ccncc2c1`, the “% Inhibition” value was determined as 6% and the Z score was -1.28.

As for `CCN(C)c1ccnc(NCc2cc3cc(Cl)ccc3[nH]2)n1`, the “% Inhibition” value is on record as 3% and the Z score was -0.42.

For the compound `O=C(c1cc(-c2cccc(Cl)c2)[nH]n1)N1CCN(Cc2cn3ccccc3n2)CC1`, the “% Inhibition” value was -12% and the Z score amounted to 1.82.
